88 molecules from publication PMC4336329 (PLoS ONE, 2015) can be followed below.

The campaign covered roughly 310,000 compounds. About 14,000 (4.5%) showed an effect of 50% or more. The effect is printed as a negative number. The list shows a part of the results.
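Also: peak tail current of the secondary pulse compared with the same well before compound.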

For the experiment, the target named is human ether-à-go-go-related gene (hERG) potassium channel (human, UniProt Q12809). The experiment is described as follows: primary screen, population patch clamp on CHO cells stably expressing hERG.
Sequence of human ether-à-go-go-related gene (hERG) potassium channel (Q12809 whole entry, looked up): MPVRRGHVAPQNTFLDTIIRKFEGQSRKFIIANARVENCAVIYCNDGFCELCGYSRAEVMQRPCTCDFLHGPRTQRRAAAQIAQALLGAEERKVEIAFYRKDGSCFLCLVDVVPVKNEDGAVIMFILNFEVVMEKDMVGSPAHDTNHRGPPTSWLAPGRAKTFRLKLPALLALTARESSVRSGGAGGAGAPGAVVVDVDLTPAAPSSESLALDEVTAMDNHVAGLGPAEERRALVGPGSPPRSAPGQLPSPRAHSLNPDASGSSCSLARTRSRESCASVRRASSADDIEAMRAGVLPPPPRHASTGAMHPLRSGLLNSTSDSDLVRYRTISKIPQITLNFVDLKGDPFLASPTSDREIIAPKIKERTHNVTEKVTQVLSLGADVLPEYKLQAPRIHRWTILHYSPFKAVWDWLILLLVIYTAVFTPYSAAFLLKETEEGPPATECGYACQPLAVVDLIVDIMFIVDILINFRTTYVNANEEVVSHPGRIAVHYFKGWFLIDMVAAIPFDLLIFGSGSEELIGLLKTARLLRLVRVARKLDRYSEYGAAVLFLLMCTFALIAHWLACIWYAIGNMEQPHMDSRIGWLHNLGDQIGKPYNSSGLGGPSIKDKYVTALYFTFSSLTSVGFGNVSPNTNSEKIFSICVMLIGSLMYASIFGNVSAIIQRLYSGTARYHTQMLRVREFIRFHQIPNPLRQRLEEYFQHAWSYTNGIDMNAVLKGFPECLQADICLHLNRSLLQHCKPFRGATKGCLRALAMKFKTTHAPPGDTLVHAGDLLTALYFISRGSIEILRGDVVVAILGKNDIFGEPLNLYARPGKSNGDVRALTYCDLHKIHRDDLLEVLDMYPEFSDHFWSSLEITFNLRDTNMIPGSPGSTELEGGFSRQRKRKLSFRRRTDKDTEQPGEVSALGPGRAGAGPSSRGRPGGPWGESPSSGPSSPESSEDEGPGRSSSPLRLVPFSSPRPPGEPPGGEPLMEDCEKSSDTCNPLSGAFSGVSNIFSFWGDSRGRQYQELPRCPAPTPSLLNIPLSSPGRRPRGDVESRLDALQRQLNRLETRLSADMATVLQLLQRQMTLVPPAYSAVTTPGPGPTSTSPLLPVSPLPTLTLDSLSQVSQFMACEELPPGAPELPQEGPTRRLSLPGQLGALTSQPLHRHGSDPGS
With `CCOc1ccc(S(=O)(=O)N2CC(=O)Nc3ccccc32)cc1C#N`, the “hERG current change (%, negative = inhibition) at 10uM” value is -23.3%.
The result for `CN(CC(=O)N1CCN(c2ncccn2)CC1)S(=O)(=O)c1ccc(Cl)cc1` reads -42.9%.
With `Cc1ccc(C(=O)c2ccc([N+](=O)[O-])cc2)cc1`, the “hERG current change (%, negative = inhibition) at 10uM” value is listed as 2.86%.
As for `CCC(C)NCCCOc1c(C)cc(C)cc1Br.O=C(O)C(=O)O` (stereo not shown), the “hERG current change (%, negative = inhibition) at 10uM” value is on record as -38.4%.
Consider `Cc1ccc(Nc2nc(CSc3nnnn3-c3ccccc3)cs2)cc1`, for which the “hERG current change (%, negative = inhibition) at 10uM” value amounted to 14.7%.
The result for `COc1ccc(S(=O)(=O)Nc2ccc(S(=O)(=O)N3CCCCC3)cc2)cc1` reads -20.1%; that for `Cc1ccc(-c2nc(CS(=O)CC(=O)N3CCN(c4ncccn4)CC3)c(C)o2)cc1` (stereo not shown), -54.1%; that for `CCc1cccc(C)c1NC(=O)CCCSc1nc2ccccc2s1`, -0.593%.
As for `NNC(=O)c1cc2cc(Oc3ccccc3)ccc2[nH]1`, the “hERG current change (%, negative = inhibition) at 10uM” value came to 16.4%.
Regarding `Cc1cc(C)c(NC(=O)CSc2nc3ccc(N4C(=O)c5ccccc5C4=O)cc3s2)c(C)c1`, the “hERG current change (%, negative = inhibition) at 10uM” value stood at 32.3%.
Next, `O=c1[nH]c2c(c(=O)n1Cc1ccccc1)CCC2`: 2.43%; `CC(C)CCN1CCN(C2CCN(c3ccc4c(c3)OCO4)CC2)CC1CCO` (stereo not shown): -17.6%; `CC(=O)c1cccc(NC(=O)Nc2csc3c2CCCC3)c1`: 6.2%.
Consider `Cc1cccc(Nc2nnc(SC3CCOC3=O)s2)c1C` (stereo not shown), for which the “hERG current change (%, negative = inhibition) at 10uM” value came to 7.81%.
For `CC(=O)N1CCN(C(=S)Nc2ccc(SC(F)F)cc2)CC1`, the “hERG current change (%, negative = inhibition) at 10uM” value is -14.1%.
Take `CCOc1cc(NC(=S)NCCCN2CCOCC2)c(OCC)cc1NC(=O)C1CC1`: the “hERG current change (%, negative = inhibition) at 10uM” value is listed as -8.1%.
For the molecule `CCC(CC)NC(=O)COC(=O)c1cc(Br)ccc1Cl`, the “hERG current change (%, negative = inhibition) at 10uM” value is reported as -0.327%.
Turning to `Oc1c(Cl)cc(Cl)cc1C=Nc1cc(C(F)(F)F)ccc1N1CCc2ccccc2C1`, the “hERG current change (%, negative = inhibition) at 10uM” value is recorded as 3.25%.
For the molecule `COC(=O)[C@@H]1C[C@@]2(O)[C@@H](O)[C@@H](O)[C@@H](O)C[C@H]2N1Cc1cc(OC)cc(OC)c1`, the “hERG current change (%, negative = inhibition) at 10uM” value came out at 15.9%.
`COc1ccc(CNC(=O)CSc2nnc(-c3cccnc3)n2N)cc1`: the “hERG current change (%, negative = inhibition) at 10uM” value is 0.54%.
For `CCN(CC)CCN1C(=O)c2ccccc2NC1c1ccc(N(C)C)cc1` (stereo not shown), the “hERG current change (%, negative = inhibition) at 10uM” value is -46.6%.
As to `CCOC(=O)c1ccc(COC(=O)CNS(=O)(=O)c2ccccc2)cc1`, the “hERG current change (%, negative = inhibition) at 10uM” value is 7.3%.
For `COc1ccc(S(=O)CC(=O)Nc2ccccc2Cl)cc1` (stereo not shown), the “hERG current change (%, negative = inhibition) at 10uM” value is recorded as 18.9%.
Regarding `CC(Cc1ccccc1)C(=O)N(C)Cc1cccnc1` (stereo not shown), the “hERG current change (%, negative = inhibition) at 10uM” value was determined as 11.3%.
In the case of `Cc1ccc(N=C2C(=O)Nc3ccccc32)c(C)c1`, the “hERG current change (%, negative = inhibition) at 10uM” value was 12.2%.
For `COc1cccc(CC2(CO)CCCN(Cc3ccc(CN4CCCCC4)s3)C2)c1` (stereo not shown), the “hERG current change (%, negative = inhibition) at 10uM” value is -22.1%.
Next, `CCOc1ccc(NC(=O)CCn2nc(C)c(S(=O)(=O)N3CCCCC3)c2C)cc1`: -17.9%; `COc1ccc(C)cc1NC(=O)C(OC(=O)Cn1cnc2c1c(=O)n(C)c(=O)n2C)c1ccccc1` (stereo not shown): -7.98%.
Take `COC(=O)c1ccc(CSCc2ccc(C#N)cc2)cc1`: the “hERG current change (%, negative = inhibition) at 10uM” value is -15.8%.
The result for `CCc1nnc(N/N=C/c2c(C)[nH]c3ccccc23)n1N.Cl` reads 48.7%.
Next, `COC(=O)C1=C(O)/C(=C\c2sccc2C)N=C1C`: 14%; `Cc1cc(Br)cc2cn[nH]c12`: 26.3%; `CC(=O)N1N=C(c2ccccc2)CC1c1ccccc1` (stereo not shown): -11.7%.
The result for `COC(=O)c1ccccc1N(C)C(=O)C12CCC(C)(C(=O)O1)C2(C)C` (stereo not shown) reads 20.4%.
`CCOC(=O)c1cnc(-n2nc(C)cc2C)nc1N1CCOCC1`: the “hERG current change (%, negative = inhibition) at 10uM” value was -5.34%.
Next, `CCCCn1c(SCC(=O)N2CCOCC2)nnc1-c1ccoc1C`: -0.136%.
Turning to `C=CCc1cc(/C=C2/NC(=S)NC2=O)cc(OC)c1O`, the “hERG current change (%, negative = inhibition) at 10uM” value is 3.53%.
Regarding `COC(=O)/C=C1/S/C(=N/NC(=O)c2ccc(OC)cc2)NC1=O`, the “hERG current change (%, negative = inhibition) at 10uM” value is listed as 21.1%.
As to `O=C(CCCCCNC(=O)N1CCn2c1nc1ccccc12)N[C@H](C(=O)O)c1ccccc1`, the “hERG current change (%, negative = inhibition) at 10uM” value is reported as 19.9%.
Next, `O=C(Cc1ccccc1[N+](=O)[O-])N1CCN(c2ccc(F)cc2)CC1`: -20.1%.
As to `Cc1ccc(NC(=O)N2CCC(c3nc4c(nnn4Cc4cccc(Cl)c4)c(=O)[nH]3)CC2)cc1`, the “hERG current change (%, negative = inhibition) at 10uM” value is listed as -5.81%.
Regarding `CCS(=O)(=O)N1CCC(C(=O)NCCc2ccc(C)cc2)CC1`, the “hERG current change (%, negative = inhibition) at 10uM” value is reported as 0.92%.
The result for `O=C(O)Cn1nc(-c2ccc(Cl)cc2)ccc1=O` reads 0.627%.
For `Cc1ccc(C(=O)N/C(=C/c2ccc(-c3cccc([N+](=O)[O-])c3)o2)C(=O)NC(C)C)cc1`, the “hERG current change (%, negative = inhibition) at 10uM” value is -30.8%.
For `COc1ccccc1N1CCN(C(=O)CCS(=O)(=O)c2ccc3c(c2)NC(=O)C(C)S3)CC1` (stereo not shown), the “hERG current change (%, negative = inhibition) at 10uM” value is listed as 3.51%.
As for `CCC(Oc1nc2ccccc2nc1-c1ccccc1NC(C)=O)C(=O)c1ccccc1` (stereo not shown), the “hERG current change (%, negative = inhibition) at 10uM” value was -11.5%.
Turning to `S=C1NCN(Cc2ccco2)CN1c1ccccc1`, the “hERG current change (%, negative = inhibition) at 10uM” value is on record as 9.93%.
Consider `COc1ccc(-c2cc3ncnc(Cl)c3s2)cc1`, for which the “hERG current change (%, negative = inhibition) at 10uM” value came out at 19.7%.
The result for `COc1ccc(-n2cc(CN(C)C(C)c3ccncn3)c(-c3cccc(F)c3)n2)cc1` (stereo not shown) reads -39.9%.
With `C=C(C)c1cccc(C(C)(C)NC(=O)N2CCC(C)CC2)c1`, the “hERG current change (%, negative = inhibition) at 10uM” value is given as 8.25%.
As for `CCOc1ccc(NS(=O)(=O)c2ccc(NC(=O)C3CCCO3)cc2)cc1` (stereo not shown), the “hERG current change (%, negative = inhibition) at 10uM” value stood at 20.7%.
Consider `Cl.OC(Cc1ccccc1)(c1ccccc1)C1CN2CCC1CC2` (stereo not shown), for which the “hERG current change (%, negative = inhibition) at 10uM” value is given as -49.7%.
For the molecule `Cc1ccc(NC(=O)c2ccc3c(c2)[nH]c(=O)n3C(C)C)cc1`, the “hERG current change (%, negative = inhibition) at 10uM” value was 4.21%.
As for `CCOC(=O)c1ccc(NS(=O)(=O)c2ccc3c(c2)NC(=O)CCS3)cc1`, the “hERG current change (%, negative = inhibition) at 10uM” value is recorded as 21%.
Consider `CCOC(=O)c1ccc(NC(=S)N2CCN(c3ccc(N4CCOCC4)nn3)CC2)cc1`, for which the “hERG current change (%, negative = inhibition) at 10uM” value is listed as 3.71%.
Next, `Cc1ccc2nc(C(=O)N3CCCC(Nc4ccc(F)cc4)C3)cn2c1` (stereo not shown): 2.9%.
In the case of `CN1C(=O)/C(=C/c2cccc(Cl)c2)Sc2ccc(C(=O)N3CCCC3)cc21`, the “hERG current change (%, negative = inhibition) at 10uM” value is given as -49.7%.
Next, `COc1ccc(Nc2ccc([N+](=O)[O-])c3nonc23)c(OC)c1`: 17.8%; `O=P(O)(O)O.c1ccc(CN(CC2=NCCN2)c2ccccc2)cc1`: -17.3%.
Regarding `COc1ccc(-c2ccc(N(C)C)cc2)cc1[C@H]1[C@H]2C=CC[C@@H](C)[C@@H]2C(=O)N1Cc1ccccc1`, the “hERG current change (%, negative = inhibition) at 10uM” value was found to be 10.1%.
`C=CCN1C(=O)/C(=C/c2ccc(N3CCOCC3)o2)C(=O)NC1=S`: the “hERG current change (%, negative = inhibition) at 10uM” value is -21.7%.
Turning to `Cc1ccc(NC(=O)c2ccc(COc3ccccc3[N+](=O)[O-])o2)nc1`, the “hERG current change (%, negative = inhibition) at 10uM” value is recorded as -0.793%.
As for `Cc1ccc(NC(=O)N2CCSc3ccccc32)cc1`, the “hERG current change (%, negative = inhibition) at 10uM” value is -9.08%.
On to `COc1ccc(C(C)=O)cc1CSCCC(=O)O`, for which the “hERG current change (%, negative = inhibition) at 10uM” value turned out to be 24.8%.
Next, `O=C(O)Cn1cnc2scc(-c3ccccc3)c2c1=O`: 7.11%.
Next, `O=C(CCc1nc(-c2ccccc2Cl)no1)NC1CCCCC1`: 10.6%.
As for `Cc1cc(C)n(CCC(=O)N2c3ccccc3CC2C)n1` (stereo not shown), the “hERG current change (%, negative = inhibition) at 10uM” value is 10.3%.
On to `COc1ccccc1OCCn1cc(C(=O)O)c2ccccc21`, for which the “hERG current change (%, negative = inhibition) at 10uM” value came to 3.25%.
`COc1ccc(CCn2c(=N)c(C(=O)NCC3CCCO3)cc3c(=O)n4ccccc4nc32)cc1` (stereo not shown): the “hERG current change (%, negative = inhibition) at 10uM” value is listed as -77.9%.
On to `CCOC(=O)N1CCN(C(=O)/C(=C/c2ccccc2OC)NC(=O)c2ccccc2)CC1`, for which the “hERG current change (%, negative = inhibition) at 10uM” value is -37.9%.
The result for `COc1ccccc1C(=O)Nc1cc(C)c(OCC(=O)N2CCOCC2)c(C)c1` reads 1.57%; that for `COc1ccc2cc3cc(C(=O)NCCCN4CCOCC4)oc3nc2c1`, -5.55%; that for `O=C(NCc1ccccc1)C(=O)NCC1OCCN1S(=O)(=O)c1cccs1` (stereo not shown), 5.82%.
Next, `CCOC(=O)N1CCN(S(=O)(=O)c2c(C)nn(C)c2C)CC1`: 16.4%; `O=C(CSc1nn(-c2ccc(F)cc2)c(=S)s1)NCC1CCCO1` (stereo not shown): -15.7%.
Next, `COCC(=O)N/N=C(\C)CC(=O)Nc1ccccc1C(N)=O`: -0.965%.
Turning to `CC1CCC(NC(=O)CC(NC(N)=O)c2ccccc2Cl)CC1` (stereo not shown), the “hERG current change (%, negative = inhibition) at 10uM” value worked out at 8.04%.
Regarding `CSCCNC(=O)Nc1c(-c2c(Cl)cccc2Cl)noc1C`, the “hERG current change (%, negative = inhibition) at 10uM” value amounted to 14.4%.
For the molecule `CCc1c(C)sc(NC(=O)CSc2nc3c(c(C(F)(F)F)n2)CCc2ccccc2-3)c1C#N`, the “hERG current change (%, negative = inhibition) at 10uM” value is reported as -2.8%.
With `Cc1cc(C)c(S(=O)(=O)Nc2cccc(-n3cnnn3)c2)c(C)c1`, the “hERG current change (%, negative = inhibition) at 10uM” value is given as -9.83%.
Next, `CCN(CC)S(=O)(=O)c1ccc(C)c(NC(=O)CNCc2ccccc2OC)c1.O=C(O)C(=O)O`: -37.7%; `Cc1cccc(Nc2nc(NCCO)nc(N3CCCC3)n2)c1`: -2.23%; `COc1ccccc1NC(=O)c1ccccc1NC(=O)c1ccccc1C(=O)O`: 8.81%.
The result for `COc1ccc(CNC(=O)C(c2ccco2)N(C(=O)c2ccccn2)c2ccccc2)cc1` (stereo not shown) reads -7.52%; that for `O=C(CN1CCOCC1)Nc1nc(-c2ccccc2)cs1`, 4.68%.
Next, `Cc1nnc(SCc2ccccc2)nc1/C=C/NOCc1ccc(Cl)cc1Cl`: 13.9%; `CCN1CCN(Cc2ccc(NC(=O)CC3Oc4ccc(C)cc4NC3=O)cc2)CC1` (stereo not shown): 5.84%; `CN1C(=O)N(C)C(c2ccccc2Cl)C2=C1CC(C)(C)CC2=O` (stereo not shown): 14.2%.
